Source: patent US20230301999A1, “METHODS OF TREATING GOUT” (Horizon Therapeutics USA, Inc., priority 2020, published 2023)

Key:
[1] = system: adult patients with uncontrolled gout; assay: Open-label study of pegloticase with MTX: serum uric acid observed values and change from baseline; format: in vivo, human; conditions: mITT
Source text: KXX treatment typically is monitored using regular determination of the patient's SUA levels. A reduction in the serum uric acid level relative to the SUA in the patient before KXX treatment may generally be indicative of successful treatment with KXX, alone, or co-administered with an immunosuppressive agent or therapy, such as MTX, as described herein. Collection and measurement of a patient's serum uric acid levels are known to those of skill in the art. In some embodiments, the patient's serum uric acid levels are assayed before each KXX therapy. In some embodiments, any suitable method for collecting appropriate samples and methods of measuring or quantifying uric acid levels may be used in accordance with the disclosure.
Criteria for Evaluation: Efficacy was assessed by SUA levels, tender and swollen joint counts, patient and physician global assessments of gout, joint pain, and DECT.
Patients were administered oral MTX (15 mg/week) and folate (1 mg/day) 4 weeks prior to the first pegloticase infusion (Day 1) and throughout the pegloticase treatment period. Blood was drawn prior to each infusion to measure sUA level, monitor clinical parameters, and examine for ADA development. All patients followed typical IR prophylaxis protocols (fexofenadine one day before and the morning of each infusion and acetaminophen and IV corticosteroid the morning of each infusion). […] The primary study outcome was the proportion of responders, defined as sUA<6 mg/dL for at least 80% of the time during month 6 (weeks 20, 22, and 24). All analyses were performed on a modified intent-to-treat population, defined as patients who received ≥1 pegloticase infusion.

[2] = system: adult patients with uncontrolled gout; assay: Open-label study: gout flares (adverse events of special interest); format: in vivo, human; conditions: for Subjects with gout flares, %: Methotrexate Run-in Period
Source text: As used herein, a “gout flare” refers to a manifestation of physiological or biochemical symptoms of gout, which is a possible side effect or AE associated with treatment with KXX. A gout flare may produce burning itching, tingling, or stiffness in the joints, particularly the peripheral joints. An individual may also experience redness, swelling, and pain in the joints. […] For such individuals, medications to help reduce flares may be taken regularly for the first few months after KXX is started.
Participants were instructed to contact the site within 12 hours of the onset of symptoms. Gout flares were confirmed through questioning or direct observation.

[3] = system: adult patients with uncontrolled gout; conditions: 4 weeks
[4] = Day 1 - Pre-Infusion (after MTX run-in, before pegloticase)
[5] = Week −2 (MTX run-in, before pegloticase)

Infections And Infestations, Total Events [3]: 2
SMILES: CN(Cc1cnc2nc(N)nc(N)c2n1)c1ccc(C(=O)N[C@@H](CCC(=O)O)C(=O)O)cc1 [Methotrexate]
sUA change from MTX baseline, mean (SD) [1, 4]: 0.25 (1.283) mg/dL
sUA change from MTX baseline, median [1, 4]: -0.25 mg/dL
subjects with sUA < 6 mg/dL, % [1, 4]: (7.1%)
sUA change from MTX baseline, mean (SD) [1, 5]: 0.54 (0.839) mg/dL
sUA change from MTX baseline, median [1, 5]: 0.50 mg/dL
subjects with sUA < 6 mg/dL, % [1, 5]: (7.1%)
Pain different than normal, % ([2]; Day 1, ITT): (50.0) %
Pain different than normal, % ([2]; Day 1, mITT): (50.0) %
Subjects with gout flares, % ([2]; ITT N = 15): (33.3) %
Subjects with gout flares, % ([2]; mITT N = 14): (35.7) %
Pain at rest >3 out of 10, % ([2]; Week −4, ITT): (50.0) %
Swelling in Joints, % ([2]; Week −4, ITT): (50.0) %
Infections And Infestations, Incidence Rate [3]: 1.8 Events/PY of MTX
